According to paper PMC4336329 (PLoS ONE, 2015):
Out of some 310,000 compounds screened, about 14,000 (4.5%) showed an effect of 50% or more. Effects have a minus sign here. The list shows a part of the results.

These compounds were tested against human ether-à-go-go-related gene (hERG) potassium channel (human, UniProt Q12809) (assay: primary screen, population patch clamp on CHO cells stably expressing hERG).
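Also: peak tail current of the secondary pulse compared with the same well before compound.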

Chain of human ether-à-go-go-related gene (hERG) potassium channel (Q12809 whole entry, looked up): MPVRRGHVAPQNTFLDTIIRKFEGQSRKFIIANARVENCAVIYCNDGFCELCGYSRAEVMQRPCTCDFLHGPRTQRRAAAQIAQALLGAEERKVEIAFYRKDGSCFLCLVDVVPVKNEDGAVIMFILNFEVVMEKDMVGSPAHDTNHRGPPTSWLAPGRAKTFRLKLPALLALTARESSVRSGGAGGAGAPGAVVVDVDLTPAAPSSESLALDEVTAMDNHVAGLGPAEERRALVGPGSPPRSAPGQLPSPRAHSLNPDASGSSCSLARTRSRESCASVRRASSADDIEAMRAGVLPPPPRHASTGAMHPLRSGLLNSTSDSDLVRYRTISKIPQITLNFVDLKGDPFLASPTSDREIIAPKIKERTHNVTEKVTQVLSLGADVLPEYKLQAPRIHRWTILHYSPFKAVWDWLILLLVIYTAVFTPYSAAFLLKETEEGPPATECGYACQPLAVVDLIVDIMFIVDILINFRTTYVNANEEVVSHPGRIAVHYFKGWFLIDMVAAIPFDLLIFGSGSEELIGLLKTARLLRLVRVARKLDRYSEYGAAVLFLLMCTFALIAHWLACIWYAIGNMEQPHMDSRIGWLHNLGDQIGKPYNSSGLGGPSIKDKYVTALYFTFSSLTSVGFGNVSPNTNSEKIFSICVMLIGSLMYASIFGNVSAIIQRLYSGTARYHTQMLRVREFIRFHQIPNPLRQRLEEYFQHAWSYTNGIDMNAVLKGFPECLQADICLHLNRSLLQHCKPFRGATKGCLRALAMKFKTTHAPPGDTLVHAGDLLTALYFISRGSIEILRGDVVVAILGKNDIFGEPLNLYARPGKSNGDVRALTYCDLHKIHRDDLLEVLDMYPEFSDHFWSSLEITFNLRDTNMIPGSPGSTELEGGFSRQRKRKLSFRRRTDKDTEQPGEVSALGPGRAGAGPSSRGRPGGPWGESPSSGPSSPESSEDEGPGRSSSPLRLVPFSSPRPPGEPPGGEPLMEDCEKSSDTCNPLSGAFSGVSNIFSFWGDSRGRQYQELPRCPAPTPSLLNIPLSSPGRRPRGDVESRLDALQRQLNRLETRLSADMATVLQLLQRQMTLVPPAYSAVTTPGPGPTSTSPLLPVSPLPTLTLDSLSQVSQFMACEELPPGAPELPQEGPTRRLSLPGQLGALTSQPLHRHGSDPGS

SMILES | hERG current change (%, negative = inhibition) at 10uM
Cc1cc(C)cc(N(C(=O)c2csnn2)C(C(=O)NC2CCCCC2)c2ccccn2)c1 (stereo not shown) | -0.36%
O=C(O)Cn1c(SCCOc2ccccc2F)nc2ccccc21 | 5.87%
COC(=O)c1ccc(S(=O)(=O)N2CCC(C(N)=O)CC2)n1C | 14.8%
COc1ccc(Cl)cc1NC(=O)CN1C(=O)CSC1=O | 10.8%
Cc1ccc(S(=O)(=O)Nc2ncccn2)cc1 | 21.1%
COc1ccc(NC(=O)CN2c3cccc4cccc(c34)S2(=O)=O)cc1 | 17.3%
COc1ccc(CC(=O)OCc2cc3ccc(C)cc3[nH]c2=O)cc1 | 9.18%
O=C(O)/C=C/C(=O)Nc1ccccc1C(=O)Nc1ccccc1 | 14.1%
Cc1ccsc1/C=N/NC(=O)Cc1ccc(Cl)cc1 | -6.82%
CC(=O)Nc1cccc(-c2cc(-c3c(Cl)cccc3Cl)no2)c1 | 6.51%
O=c1c2ccccc2nc(-c2ccoc2)n1CCc1ccccc1 | -3.87%
CCc1ccc(NS(=O)(=O)c2ccc(OC)c3ncccc23)cc1 | 18.1%
CCOC(=O)N1C(=O)[C@](CC)(c2ccccc2)N1C(=O)OCC | 6.48%
Cc1cccc(Nc2nn3c(=O)c4ccccc4nc3s2)c1 | 23.6%
O=C1OC(Nc2ccc(Br)cn2)c2ccccc21 (stereo not shown) | 7.42%
CCOc1cc(/C=N/NC(=O)CN2CCCCC2)ccc1OCc1cccc(Cl)c1 | -45.3%
Nc1nc2ccccc2n1/N=C/c1ccc([N+](=O)[O-])s1 | -1.38%
Cc1ccc(Cl)cc1N1CCN(C2CCCCC2NS(=O)(=O)c2ccccc2)CC1 (stereo not shown) | 17.9%
O=C(Oc1cccc2ccccc12)c1ccco1 | -6.45%
COCCN(C(=S)Nc1ccc(OC)cc1)C1CCN(C(C)=O)CC1 | 12.6%
CCC(=O)c1ccc(OCC(=O)Nc2cc(S(=O)(=O)N3CCCCC3)ccc2N2CCN(CC)CC2)cc1 | -84.3%
COc1ccc(/C=N/NC(=O)CCSc2nc3ccccc3s2)cc1 | -18%
C/C(=N\NC(=O)CNC(=O)c1cccnc1)c1cccc(O)c1 | 11.9%

SMILES | hERG current change (%, negative = inhibition) at 10uM
CC(NC(=O)/C=C/c1ccccc1)c1ccccc1 (stereo not shown) | 2.68%
O=C(O)c1cc2ccc3ccccc3c2oc1=O | 19.7%
NC(=O)c1ccc(NC(=O)COc2ccc(-n3cnnn3)cc2)cc1 | -4.26%
COC(=O)C1(C(C[N+](=O)[O-])c2ccc(C)cc2)C(=O)NCC1c1ccco1 (stereo not shown) | 7.35%
O=C(O)c1ccc(CSc2nc3ccccc3[nH]2)cc1 | -30.5%
CNc1nnc(-c2ccc(C)cc2)c2ccccc12 | -39%
CCOC(=O)C1=C(CCc2ccccc2)NC(=O)NC1c1ccc(C#N)cc1 (stereo not shown) | -16.7%
CCCN(CCC)c1ncnc2nc[nH]c12 | -7.36%
CCNC(=O)c1sc2cc(C)ccc2c1Cl | -3.25%
Cc1cc(NC(=O)CN2C(=O)NC(C)(c3ccc(Cl)cc3)C2=O)no1 (stereo not shown) | 39.2%
COc1cccc(NC(=O)C2CCCO2)c1 (stereo not shown) | 17.7%
COc1ccc(C(=O)Nc2ccc(C(=O)NCCc3ccccc3)cc2)cc1 | 10.6%
Cc1cccc(Nc2nc(N)nc(CCl)n2)c1C | 7.12%
O=C(Cn1cnc2c(nnn2Cc2ccc(F)cc2)c1=O)N1CCN(c2ccccc2)CC1 | -29.1%
CC(C)Cc1nnc(NC(=O)CCC(=O)NCCc2ccc(Cl)cc2)s1 | 30.2%
COc1ccccc1N1CCN(/N=C/c2cc(OC)c(OC(C)=O)c(OC)c2)CC1 | 19.5%
O=S(=O)(c1ccc(Br)cc1)c1nc(-c2ccco2)oc1NCC1CCCO1 (stereo not shown) | -17.9%
CC(C)(C)OC(=O)NCCCCCNC(=O)c1[nH]cnc1C(=O)Nc1ccon1 | 1.99%
CC(=O)c1nnn(-c2nc(N3CCCC3)nc(N(c3ccccc3)c3ccccc3)n2)c1C | 13.6%
CCC(=O)Nc1nc2c(OC)ccc(OC)c2s1 | 11.4%
Cc1cccc(CN2CCN(C3CCCC3)C(CCO)C2)n1 (stereo not shown) | 3.1%
CCOC(=O)CSc1cc(CS(C)(=O)=O)nc(-c2ccccn2)n1 | -28.1%
OCCC1CN(Cc2ccccc2-c2ccco2)CCN1Cc1ccsc1 (stereo not shown) | -51%

SMILES | hERG current change (%, negative = inhibition) at 10uM
CC(C(=O)Nc1ccccc1C(F)(F)F)N1CCN(C)CC1.O=C(O)C(=O)O (stereo not shown) | 5.35%
CN1C(=O)C(O)(CC(=O)c2cccnc2)c2ccccc21 (stereo not shown) | 10.6%
C=CCSc1nc2c(c(=O)[nH]c(=O)n2C)n1Cc1ccc(C)cc1 | 17.6%
O=C1N/C(=C\c2ccccc2)C(O)=C1C=NCc1ccccc1 | 5.77%
CCN(CC)C(=O)c1nc[nH]c1C(=O)N1CCc2ccccc2C1 | 20.9%
O=C1CSC(=S)N1 | 35.1%
CC(=O)Nc1ccccc1C(=O)N1CC2(C)CC1CC(C)(C)C2 (stereo not shown) | 10.8%
CCCn1c(NC(=S)Nc2ccccc2)nc2ccccc21 | 21.4%
CN(CCO)c1ccc(C(C(=O)c2ccccc2)c2ccc(N(C)CCO)cc2)cc1 | -5.99%
CNc1cc(N2CCNCC2)ccc1[N+](=O)[O-] | -2.63%
CCOC(=O)N1CCN(S(=O)(=O)c2ccc(C)c(C)c2C)CC1 | -3.25%
COc1ccc(NC(=O)NC23CC4CC(CC(C4)C2)C3)cc1OC | 2.71%
COc1ccccc1CCNC(=O)Nc1cccc([N+](=O)[O-])c1 | 13.5%
CSc1ccccc1-c1nnc(-c2ccccc2)o1 | 3.34%
Cc1cc2c(=O)n(CC(=O)NCC(=O)Nc3ccc(C(C)C)cc3)cnc2s1 | 13.1%
CC(=O)Nc1cccc(N2C(=O)CC(N3CCC(C(=O)N4CCCCC4)CC3)C2=O)c1 (stereo not shown) | 17%
CCOC(=O)CC1C(=O)NCCN1C(=O)COc1ccc(C(C)(C)C)cc1 (stereo not shown) | -2.65%
COc1ccc(/C=N/NC(=O)c2ccn[nH]2)cc1COc1ccc(Cl)cc1 | 2.09%
Cc1cc(=O)[nH]c2nnc(-c3ccc(Br)cc3)n12 | 5.99%
O=C1c2nccnc2C(=O)N1c1ccc(C(F)(F)F)cc1 | 36.3%
Cc1csc(Sc2nc3c(c(=O)[nH]c(=O)n3C)n2Cc2ccccc2Cl)n1 | -12.1%
Cc1cccc(-c2nc(CC(=O)Nc3cccc(S(=O)(=O)NC4=NCCC4)c3)cs2)c1 | -3.56%
O=c1oc2ccccc2c(Nc2ccc(F)cc2)c1[N+](=O)[O-] | -9.49%

SMILES | hERG current change (%, negative = inhibition) at 10uM
CCOC(=O)c1ccc(NC(=S)NCCCN2CCOCC2)cc1 | 41.4%
O=C(CCN1CCCO1)NC1CCCc2c1cnn2-c1ccccc1F (stereo not shown) | 20.7%
O=C(Nc1ccccc1Cl)NC1(C(=O)NCCCN2CCOCC2)CCCCC1 | 4.9%
CC(=O)Nc1cccc(C(=O)OCC(=O)NNC(=O)c2ccc([N+](=O)[O-])cc2)c1 | -6.28%
CCCc1cc(=O)[nH]c(SCC(=O)c2cc(C)n(C)c2C)n1 | -6.04%
COc1cccc(O[C@@H]2O[C@@H]3COC(C)(C)O[C@H]3[C@H](O)[C@H]2NC(C)=O)c1 | -3.8%
COC(=O)c1ccsc1NC(=O)CSc1nnnn1Cc1ccccc1 | -9.26%
O=C(OCc1ccccc1Cl)c1ccccc1C(=O)c1ccccc1 | -2.97%
O=C(C1=NN[C@@H]2C(=O)N(c3cccc(F)c3)C(=O)[C@H]12)C(c1ccccc1)c1ccccc1 | -19.2%
CCOc1ccc(/C(O)=C2/C(=O)C(=O)N(CC3CCCO3)C2c2ccc(C)o2)cc1 (stereo not shown) | 9.85%
OC1(c2ccc(F)cc2)CCN(Cc2nnnn2Cc2cccs2)CC1 | -28.7%
Cc1[nH]c2ccccc2c1C(=O)NS(=O)(=O)Nc1ccccc1 | 9.15%
Cc1ccc(CN(C(=O)c2sc3ccccc3c2Cl)C2CCS(=O)(=O)C2)cc1 (stereo not shown) | -3.31%
CCC(=O)NCCNc1ccc([N+](=O)[O-])cn1 | -1.79%
CCOc1ccc(-c2nc(-c3ccc(OC)cc3)no2)cc1OCC | 15.3%
COCCNC(=O)c1onc(CCl)c1C(=O)OC | 5.37%
Cc1cccc(C(=O)Nc2nnc(SCC(=O)Nc3ccc4c(c3)oc3ccccc34)s2)c1 | 23.5%
Cc1cc(NC(=O)c2ccc(Cn3cc([N+](=O)[O-])cn3)o2)no1 | 5.01%
CCOC(=O)C1=C(C)N(CC(C)C)C(=O)/C1=C\c1cccs1 | 16.4%
COc1ccccc1NC(=O)c1cc(S(=O)(=O)N2CCCC2)cn1C | -19.8%
COc1cccc(/C=N/Nc2cc(-n3nc(C)cc3-c3ccccc3)ncn2)c1O | 7.09%
COc1ccc(Cc2noc(CN3CCCN(C4Cc5ccccc5C4)CC3)n2)cc1OC | -67%
